Results reported in PubChem BioAssay AID1963576 (National Center for Advancing Translational Sciences (NCATS), 2024).
About 60 (0.1%) of roughly 46,000 compounds were called active. About 3% were inconclusive and are not listed. Calls follow the shape of the dose curve; as a rule, active = well fitted inhibition curve with a large enough effect; inconclusive = small, poorly fitted or top-dose-only effect; inactive = no such curve, though single readings can be large or run the other way. The list shows a part of the results.

Test: Primary qHTS assay for Inhibitors of ovarian cancer metastasis using an organotypic tumor microenvironment (TME) model. Also: nearly all actives have a fitted effect of over 65% in size.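 As to activity change, negative = inhibition: plate controls were DMSO wells for no effect and tomatine positive control wells for full effect.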
Settings: SKOV3ip1-GFP adhesion/invasion on 3D omental model, fluorescence; series mostly up to 45.8 µM; activity change, negative = inhibition: at the top concentration
Outline: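 Primary human omental fibroblast/mesothelial 3D culture pre-formed 48 h. SKOV3ip1-GFP cells added with compounds (0.36-46 umol/L), incubated 2 h RT/16 h 37 C, fixed; GFP cells quantified at 488/509 nm.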

Compound	activity change, negative = inhibition	outcome
COCCn1c(SCC(=O)c2c[nH]c3ccccc23)nc2cc(C(=O)NC(C)C)ccc2c1=O	inactive: -1.64%	
COCCCNC(=O)c1ccc(C)c(-n2c(C)nc3cccnc32)c1	inactive: 0.993%	
Cc1nc2ccn(Cc3cccnc3)c(=O)c2cc1C(=O)Nc1ccc(F)cc1F	inactive: 4.61%	
CCOC(=O)Cn1c(=O)oc2cc(S(=O)(=O)N3CCC(C(=O)OCC)CC3)ccc21	inactive: -9.16%	
Cc1ccc(OCC(=O)Nc2ccc3nc(SCCOc4ccccc4)sc3c2)cc1		inactive
Cc1ccc(NC(=O)CSc2nnc(-c3ccc(Br)cc3)o2)c(C)c1	inactive: 0.736%	
Cc1cc(C)c(NC(=O)CSc2nc3ccncc3[nH]2)c(C)c1		inactive
COc1ccc(CNC(=O)c2ccc3nc(C(C)C)oc3c2)cc1OC		inactive
Cc1ccc(NC(=O)CN2C(=O)COc3ccc(S(=O)(=O)Nc4ccccc4)cc32)c(C)c1		inactive
Cc1cc(C)c2c(=O)cc(C(=O)NCc3ccc(S(N)(=O)=O)cc3)oc2c1	inactive: -3.55%	
COCCCNC(=O)CSc1nc(-c2ccc(OC)c(OC)c2)[nH]c1-c1ccc(F)cc1	inactive: 0.0919%	
CCc1ccc(NC(=O)CCc2nnc3n(C)c(=O)c4sccc4n23)cc1	inactive: 69.3%	
COC(=O)c1cc2oc3ccccc3c2n1Cc1c(C)cc(C)cc1C	inactive: -3.95%	
O=C1[C@H](Cc2ccc(O)cc2)N2C(=O)CCN(C(=O)NCc3ccccc3)[C@H]2CN1Cc1cccc2ccccc12	inactive: -28.8%	
Cc1ccc(C2=NC(c3ccccc3)=Nc3ccc(Cl)cc3N2)cc1	inactive: 18.3%	
Cc1nc2cccnc2n1-c1cccc(C(=O)NCCc2ccc(S(N)(=O)=O)cc2)c1	inactive: -9.37%	
Cc1cccc(NC(=O)C2CCCN(S(=O)(=O)c3ccc(Br)s3)C2)c1 (configuration not stated)	inactive: 3.23%	
Cc1nn2c(=O)cc(COC(=O)COc3ccc(F)cc3)nc2s1		inactive
COc1cc2ccccc2cc1C(=O)Nc1cccc(-c2nc3cc(C)ccc3o2)c1C	inactive: 8.15%	
Cc1ccccc1S(=O)(=O)Cc1ccc(C(=O)N2CCN(c3cccc(Cl)c3)CC2)o1	inactive: -1.58%	
COc1ccc(NC(=O)C2=CC(c3ccco3)=NS(=O)(=O)N2C)cc1		inactive
CCN(CC)CCOC(=O)c1ccc(NC(=O)c2cc3c(=O)n(CC)c4ccccc4c3s2)cc1	inactive: -11.5%	
CCN1CCN(Cc2c(O)ccc3c(C)c(-c4ccc(OC)cc4)c(=O)oc23)CC1	inactive: -2.58%	
Cc1ccccc1C(=O)Nc1cccc(OCc2cc(=O)n3c(C)csc3n2)c1		inactive
Cc1cccc(NC(=O)c2cc(S(=O)(=O)NCCc3ccccc3)ccc2F)c1C	inactive: -5.68%	

Compound	activity change, negative = inhibition	outcome
COc1ccccc1C1c2c(-c3ccc(Cl)cc3)n[nH]c2C(=O)N1c1ccc(C)cc1 (configuration not stated)	inactive: -8.12%	
Cc1ccc(S(=O)(=O)N2CCC(C(=O)NCc3ccccc3Cl)CC2)cc1	inactive: -2.15%	
N#Cc1ccc(-c2cccs2)nc1SCC(=O)Nc1cccc(C(F)(F)F)c1	inactive: -20.4%	
CCCCCn1c(=O)[nH]c2cc(C(=O)Nc3ccc(F)c(F)c3)ccc2c1=O	inactive: -8.92%	
Cc1cc(SCC(=O)NCc2ccc(Cl)cc2)nc(=O)[nH]1	inactive: -16.2%	
Cc1ccc(C)c(NC(=O)CN2CCSc3ccc(S(=O)(=O)N4CCCC4)cc32)c1		inactive
COc1ccccc1N1CCN(c2ncnc3c2nnn3C)CC1	inactive: 2.06%	
Oc1cc(O)cc(C=Cc2ccc(O)c(O)c2)c1	inactive: 1.34%	
CCOCCn1ccc2c(OCC(=O)Nc3ccc(C(N)=O)cc3)cccc2c1=O	inactive: -2.34%	
CC(C)c1ccc(CN(C(=O)c2cc3ccccc3oc2=O)C2CCS(=O)(=O)C2)cc1 (configuration not stated)	inactive: -2.93%	
COc1ccc(NC(=O)C2CCN(S(=O)(=O)c3cccc(-c4noc(C)n4)c3)CC2)cc1OC	inactive: 1.75%	
CCOC(=O)c1oc2ccc(S(=O)(=O)n3nc(-c4ccc(C)cc4)cc3N)cc2c1C		inactive
CC(C)c1ccc(S(=O)(=O)N2CCC(n3c(C(F)(F)F)nc4cccnc43)CC2)cc1	inactive: -20.6%	
COC(=O)c1cc2occc2n1Cc1nc(-c2ccccc2)oc1C	inactive: 4.58%	
CN(C)c1ccc(CNC(=O)C2CCN(c3nc4ccccc4[nH]3)CC2)cc1	inactive: -8.59%	
CCCc1nn2c(=O)cc(COC(=O)c3ccc(NC(=O)COc4ccc(F)cc4)cc3)nc2s1	inactive: -13.8%	
Cc1cc(S(=O)(=O)N2CCN(Cc3noc(CCC(=O)N4CCCCC4)n3)CC2)ccc1F	inactive: 3.9%	
COc1ccc(C2NC(=O)N(C)C3=C2C(=O)N(c2ccc(Br)cc2)C3)cc1 (configuration not stated)	inactive: -15.2%	
COc1cccc2sc(N(Cc3cccnc3)C(=O)c3ccc4c(c3)OCCO4)nc12		inactive
CC(NC(=O)C1CCN(S(=O)(=O)Cc2ccccc2)CC1)c1ccccc1 (configuration not stated)		inactive
CSc1ccc(CCNC(=O)NCc2noc3ccccc23)cc1	inactive: 4.04%	
COc1cccc(CNC(=O)c2cnc3sc(N4CCCC4)nn3c2=O)c1OC	inactive: 0.344%	
COc1ccc(Cn2c(CCC(=O)NCc3ccc(Cl)cc3)nc3cccnc32)cc1	inactive: 0.966%	
CCOC(=O)CC(NC(=O)CCc1c(C)nc2c(-c3ccccc3)c(C)nn2c1C)c1ccc(OC(C)C)cc1 (configuration not stated)	inactive: -29.2%	
Cc1cccc(NC(=O)Cn2cc(C(=O)C3CCCCC3)c3ccccc32)c1	inactive: -5.58%	

Compound	activity change, negative = inhibition	outcome
COc1ccc(CNc2nc(-c3ccco3)nn2S(=O)(=O)c2ccc(Cl)cc2)cc1OC	inactive: 6.31%	
COc1ccc(Cl)cc1NC(=O)c1cc2c(=O)n3ccccc3nc2s1		inactive
O=C(CSc1cn(CC(=O)N2CCCC2)c2ccccc12)Nc1ccc(Cl)cc1	inactive: 10.6%	
Cc1ccc(C(=O)NCC(c2ccc3c(c2)OCO3)N2CCOCC2)cc1C (configuration not stated)	inactive: 1.38%	
CCOC(=O)c1cc(S(=O)(=O)Nc2cc(OC)ccc2OC)[nH]n1	inactive: -5.05%	
Cc1cc(C)n(-c2nnc(Nc3ccc(C)c(C)c3)c3ccccc23)n1	inactive: 38.7%	
Cc1cc(O)c(C(c2cccc(F)c2)N2CCN(c3ccccc3)CC2)c(=O)n1Cc1ccco1 (configuration not stated)	inactive: 4.76%	
COC(=O)c1c(NC(=O)CCCOc2cccc(C)c2)sc2c1CCC2	inactive: -2.3%	
COc1ccc(-c2c(C#N)c(SCC(=O)Nc3ccccc3C)nc(C)c2C(=O)Nc2ccc(Cl)cc2)cc1	inactive: -1.17%	
CN(c1ccccc1)S(=O)(=O)c1ccc(NC(=O)c2nc(S(C)(=O)=O)ncc2Cl)cc1		inactive
COc1ccc(NC(=O)Cn2c(SCc3ccc(C)cc3)nc3cccnc32)cc1OC	inactive: -4.06%	
Cc1ccc(C)c(CN2C(=O)c3ccccc3S(=O)(=O)c3ccc(C(=O)OCC4CCCO4)cc32)c1 (configuration not stated)	inactive: 5.57%	
O=C1Nc2ccccc2Oc2cc(Oc3ccccc3)ccc21		inactive
Cc1cccc(-c2nn3c(=O)cc(CN4CCN(C(=O)/C=C/c5ccccc5)CC4)nc3s2)c1	inactive: 4.34%	
COc1ccccc1Nc1nc(-c2ccccc2F)nc2ccccc12	inactive: -0.205%	
Cn1c(=O)[nH]c2cc(-c3noc(-c4ccc(Br)cc4)n3)ccc21	inactive: 7.29%	
CC(C)c1ccc(S(=O)(=O)c2nnn3c2nc(N2CCCC2)c2sccc23)cc1	inactive: 2.55%	
Cc1cccc(Cn2c(=O)n3nc(-c4ccccc4)nc3c3ccccc32)c1		inactive
COc1ccc(C2c3cc(OC)c(OC)cc3CC(=O)N2c2ccc(C)cc2)cc1 (configuration not stated)	inactive: 0.324%	
CCC(C)c1ccc2oc(-c3ccc(NC(=O)c4cc5ccccc5o4)cc3)nc2c1 (configuration not stated)		inactive
COc1cc2c(C(=O)Nc3cc(OC)c(OC)c(OC)c3)cn(C)c(=O)c2cc1OC	inactive: 0.162%	
Cc1cnc(Nc2cccc(CN3CCOCC3)c2)nc1Nc1cccc(S(=O)(=O)NC(C)(C)C)c1	inactive: -28.4%	
CCc1ccc(NC(=O)c2ccc(-c3ccccc3)s2)cc1		inactive
O=C(NCCN1CCN(c2cccc(Cl)c2)CC1)Nc1ccccc1	inactive: -26.2%	
Cc1ccc(NC(=O)CSc2nnc3ccc4ccccc4n23)cc1	inactive: -10.9%	

Compound	activity change, negative = inhibition	outcome
O=C(CC1N=C2c3ccccc3N=C(SCc3ccc(F)cc3)N2C1=O)NCc1ccc2c(c1)OCO2 (configuration not stated)	inactive: 2.63%	
CCC(Oc1ccccc1)C(=O)Nc1nnc(S(=O)(=O)N(CC)CC)s1 (configuration not stated)	inactive: -11.8%	
CCc1cnc2c(c1SCC(=O)NCc1ccccc1Cl)c(=O)n(C)c(=O)n2C	inactive: 3.43%	
CCc1ccc(NC(=O)c2cnn(-c3ccccc3)c2-n2cccc2)cc1	inactive: 6.52%	
Cc1cccc(NC(=O)c2ccc(-c3ccccc3)s2)c1	inactive: -1.01%	
CCOC(=O)C1CCN(c2ncnc3c2nc2n3CCCCC2)CC1	inactive: 1.06%	
Cc1cccc(C(=O)NCC(c2ccco2)S(=O)(=O)c2cccs2)c1 (configuration not stated)	inactive: -5.23%	
Cc1cc(C)c(NC(=O)C2CCN(c3nc4ccccc4n4cccc34)CC2)c(C)c1	inactive: -4.05%	
CN(C(=O)CSc1nnc(NC(=O)Nc2ccccc2)s1)c1ccccc1		inactive
Cc1ccccc1CNC(=O)c1cnc2sc(N3CCC(C)CC3)nn2c1=O	inactive: 0.939%	
COC(=O)c1c(NC(=O)c2ccc(S(=O)(=O)N3CCC(C)CC3)cc2)sc2c1CCN(C)C2		inactive
COc1cc2ccccc2cc1C(=O)Nc1cccc(-c2nc3cc(C)c(C)cc3o2)c1	inactive: -6.37%	
CC(C)NC(=O)C1CCC(Cn2c(=O)c3sccc3n(Cc3ccc(F)cc3)c2=O)CC1 (configuration not stated)	inactive: 1.95%	
COc1ccc(-n2ncc(C(=O)NCc3ccco3)c2C2CCN(C(=O)OC(C)(C)C)CC2)cc1	inactive: 17.4%	
O=C(NCC(c1cccnc1)N1CCc2ccccc21)c1cccc(Br)c1 (configuration not stated)	inactive: -0.0587%	
Brc1cccc(-c2nnn3c2nc(NCc2ccc4c(c2)OCO4)c2ccccc23)c1		inactive
COc1ccc(N2CCN(c3ncnc4c3cnn4C)CC2)cc1	inactive: 1.48%	
CCCC(=O)N(c1ccc2oc(C)c(C(C)=O)c2c1)S(=O)(=O)c1ccc(CC)cc1		inactive
CCOc1ccc(CCNC(=O)c2cc3cccc4c3n2CCS4)cc1	inactive: 4.69%	
COc1cccc(NC(=O)C2CCCN(S(=O)(=O)c3cn(C(C)C)cn3)C2)c1 (configuration not stated)	inactive: 6.29%	
COC(=O)c1c(-c2ccc(Cl)cc2)noc1N1CCN(c2cc(C)ccc2C)CC1	inactive: 21.4%	
CCN(CC)S(=O)(=O)c1ccc2c(c1)N(CC(=O)Nc1ccccc1F)C(=O)C1CCCN21 (configuration not stated)	inactive: -0.192%	
